# In the supplement of paper PMC10126150:
# Values marked as one replicate rest on one cluster of the flow cell; about a third of the high ones do not repeat.
# Test system: ATP
# Test: switch fluorescence ratio, 500 uM ATP over buffer (Cy3 cluster intensity, sum of 5 cycles each) (fold (ratio)); higher = stronger signal-on switching upon ATP binding; sequences stand for … in TCGTCGGCAGCGTCAGATGTGTATAAGAGACAGTTTTTTTTTTTTTTTTTTTTTTTTT…TC
# Settings: aptamer strand: ATP DNA aptamer (quencher-CACCTGGGGGAGTATTGCGGAGGAAGG + anchor), 100 nM annealed; ATP concentration: 500 uM; one replicate
# How it was run: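 Exposure to 500 uM ATP lasted 15 min at 22 °C before imaging, and a selection-buffer image was taken beforehand, for Cy3-labelled switching-strand clusters on a modified Illumina MiSeq flow-cell annealed to 100 nM quencher-labelled ATP aptamer. Five buffer/ATP cycles were run with NaOH stripping and re-annealing between them. The fluorescence ratio per cluster is summed target-cycle over summed buffer-cycle Cy3 intensity, averaged per switch-domain sequence. Clusters outside 100-1000 RFU were excluded.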
row,Sequence,switch fluorescence ratio
1,GGAAGAAGGA,0.97
2,GGAAGATCAG,1
3,GGAAGCCACA,0.996
4,GGAAGCTATT,1.02
5,GGAAGCTCTT,0.994
6,GGAAGGCCTT,0.95
7,GGAAGGGAGT,1.06
8,GGAAGGTTGT,0.983
9,GGAAGTATTT,0.993
10,GGAAGTGCGT,0.994
11,GGAAGTTATC,0.995
12,GGAAGTTGG,0.935
13,GGAATACCCT,1.14
14,GGAATAGTCC,1.53
15,GGAATATCTG,1.06
16,GGAATCCCTG,1.04
17,GGAATCGGGA,0.981
18,GGAATCTCTT,0.977
19,GGAATGCG,1.04
20,GGAATGCGAA,1.06
21,GGAATGCGGA,1.05
22,GGAATGTGTG,0.985
23,GGAATTAAGT,1.02
24,GGAATTAATT,0.852
25,GGAATTAGTA,1.01

row,Sequence,switch fluorescence ratio
1,GGAATTTTTA,0.975
2,GGACAAGGTG,1.06
3,GGACAGAAGC,1.01
4,GGACAGGCAG,1.01
5,GGACAGTGGT,1.06
6,GGACATGTAA,0.954
7,GGACCATGAA,1.01
8,GGACCATTGA,0.987
9,GGACGAGGGT,1.05
10,GGACGGCGTG,0.933
11,GGACGGGGCA,1.03
12,GGACGGTACA,1.34
13,GGACGGTCAT,1.03
14,GGACGGTGTA,1.02
15,GGACGTGTTT,0.975
16,GGACTAGAAC,1.02
17,GGACTAGTCC,1
18,GGACTCATTA,1
19,GGACTGAGGT,0.985
20,GGACTGATTT,0.991
21,GGACTTACTG,1.02
22,GGACTTATAC,1.17
23,GGACTTGAGC,1.02
24,GGACTTGTGC,0.972
25,GGACTTTATC,0.993

row,Sequence,switch fluorescence ratio
1,GGAGACACGG,0.982
2,GGAGACCTC,0.972
3,GGAGACGAAC,1.19
4,GGAGACTATC,1.02
5,GGAGACTGTT,1.06
6,GGAGAGGGAA,0.993
7,GGAGAGGTAA,0.998
8,GGAGATATAA,0.998
9,GGAGATGGGA,0.95
10,GGAGATTGTA,1.02
11,GGAGCGCGAG,1.06
12,GGAGGAAAAG,0.988
13,GGAGGAGTTG,0.939
14,GGAGGATTAA,0.973
15,GGAGGCAATT,1.79
16,GGAGGCGATG,0.948
17,GGAGGCGGCG,0.965
18,GGAGGCTAAA,1.02
19,GGAGGCTCTT,1.03
20,GGAGGCTTTT,0.984
21,GGAGGGAAAC,0.993
22,GGAGGGAATT,1
23,GGAGGGGAT,1.03
24,GGAGGTACA,1.03
25,GGAGGTTACA,0.951

row,Sequence,switch fluorescence ratio
1,GGAGGTTGAC,1.01
2,GGAGTAACCG,0.956
3,GGAGTAAGCT,1.04
4,GGAGTACCGT,0.995
5,GGAGTATACG,1.06
6,GGAGTATGTT,0.962
7,GGAGTCATGC,1.07
8,GGAGTCCTTC,0.985
9,GGAGTGGGTT,1.01
10,GGAGTTGTAT,0.947
11,GGAGTTTCAA,0.972
12,GGATAAATAA,0.985
13,GGATAATGTC,0.99
14,GGATACATCA,0.999
15,GGATAGATCT,1
16,GGATATCCGT,1.03
17,GGATATGAGA,1.01
18,GGATATGCCC,0.986
19,GGATATGCTG,1.07
20,GGATATGGAG,1.05
21,GGATATTAAG,0.985
22,GGATATTCT,0.993
23,GGATCAGGCC,0.958
24,GGATCATGAT,1
25,GGATCCTTGA,1.03

row,Sequence,switch fluorescence ratio
1,GGATCGCTTT,1.01
2,GGATCGTGTC,0.945
3,GGATCTTCAT,1.02
4,GGATGAGAGA,1.01
5,GGATGATACG,0.978
6,GGATGATGTA,0.944
7,GGATGCGACT,1.05
8,GGATGGGTCA,1.02
9,GGATGGTCGC,0.979
10,GGATGTAAAA,1
11,GGATGTACCC,1.04
12,GGATGTCGT,0.948
13,GGATGTGCGG,0.993
14,GGATTACAGC,1.04
15,GGATTCCGGT,0.97
16,GGATTGAAC,0.997
17,GGATTGACAG,1.02
18,GGATTGTTAG,1.01
19,GGATTTAGAT,0.98
20,GGATTTTGCT,0.974
21,GGCAAAACGC,1.02
22,GGCAAATATT,0.986
23,GGCAAGACCG,1.04
24,GGCACAGTGG,0.988
25,GGCACATTTC,1.02

row,Sequence,switch fluorescence ratio
1,GGCACGTGGT,0.993
2,GGCAGAGGGG,0.984
3,GGCAGCACGT,1.02
4,GGCAGCATGG,1.06
5,GGCAGCATTA,1.14
6,GGCAGGCACG,0.981
7,GGCAGGTACC,1.04
8,GGCAGTAACG,1.08
9,GGCAGTAGGA,1.02
10,GGCATAACGG,1.01
11,GGCATAAGAA,0.977
12,GGCATCAGTG,0.98
13,GGCATGGATC,0.998
14,GGCATGGTTA,0.981
15,GGCATTGGTC,1.02
16,GGCCAACTTG,1
17,GGCCAATCCG,1.09
18,GGCCAGGGCT,1.03
19,GGCCATAATG,1.04
20,GGCCATGTAA,0.972
21,GGCCATGTTT,1.02
22,GGCCCAAAAT,1.01
23,GGCCCCCCCG,1.59
24,GGCCCCGCCC,0.991
25,GGCCCCGGGC,0.997

row,Sequence,switch fluorescence ratio
1,GGCCCCTG,1.01
2,GGCCCCTGGA,1.01
3,GGCCCCTGGT,1.18
4,GGCCCCTTGC,1.1
5,GGCCCGTTGC,1.04
6,GGCCGAACGG,1.04
7,GGCCGACACG,0.978
8,GGCCGAGCAC,1.58
9,GGCCGGAATG,1.07
10,GGCCTAAGGT,0.989
11,GGCCTCACGG,0.94
12,GGCCTCTGAC,1.08
13,GGCCTTTGTC,1.04
14,GGCGAAAAAT,0.988
15,GGCGAATAAC,1.09
16,GGCGACAAGC,1.01
17,GGCGACTGGT,0.93
18,GGCGATACCA,1.02
19,GGCGATACCG,1.01
20,GGCGCAAGAG,4.89
21,GGCGCACCTA,1.01
22,GGCGCCCCAG,1.03
23,GGCGCCCGTT,0.996
24,GGCGCCCTGT,0.957
25,GGCGCCTGG,0.949

row,Sequence,switch fluorescence ratio
1,GGCGCGCCGT,0.947
2,GGCGCGTCAG,1
3,GGCGCTAATT,1.02
4,GGCGCTTATG,1.03
5,GGCGGAAGAC,1.42
6,GGCGGACGCA,1.02
7,GGCGGACGGG,0.997
8,GGCGGAGCGA,1.04
9,GGCGGAGTC,1.03
10,GGCGGATGGT,1
11,GGCGGGAAAA,0.911
12,GGCGGGATTC,0.982
13,GGCGGTCATA,0.998
14,GGCGGTTTCT,0.986
15,GGCGTACAGG,1.01
16,GGCGTCCCCC,1.08
17,GGCGTCTGTT,1
18,GGCGTGAGTT,0.979
19,GGCGTGGCAA,0.978
20,GGCGTTCTGG,1.01
21,GGCGTTTATG,1.01
22,GGCGTTTTCA,1.05
23,GGCTAACCCC,1.07
24,GGCTAGATCA,0.994
25,GGCTCAGCGA,1.86
